Screen size: about 48,000 compounds; about 120 (0.25%) were called active. Roughly 4% stayed inconclusive and do not appear here. Calls come from the whole dose curve; as a rule, active = well fitted activation curve with a large enough effect; inconclusive = small, poorly fitted or top-dose-only effect, or another doubt; inactive = no such curve, though single readings can be large or run the other way. The list shows a part of the results.
assay: Primary qHTS for Identification of Small Molecule Activators of Huntingtin-Antisense Promoter Activity; conditions: HEK293 HTT-AS promoter firefly luciferase reporter, 24 h; series mostly up to 57.5 µM; activity change, positive = activation: at the top concentration; note: nearly all actives have a fitted effect of over 55% in size
Summary of the method: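 Quantitative HTS used concentration series of up to 57.5 uM final on HEK293 luciferase reporter cells, 24 h at 37 degrees C. Readout was Dual-Glo firefly luminescence.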

Compound	activity change, positive = activation
O=C(Cn1c(=O)n(-c2ccc(F)cc2)c(=O)c2sc3ccccc3c21)NC1CCCCC1	inactive: -14.5%
CCCOc1ccc(Nc2cc(C)nc(C)n2)cc1	inactive: 24.2%
COc1ccc(OC)c(CCNc2nccn(-c3ccc(C)c(C)c3)c2=O)c1	inactive: -16.2%
O=C(NCC(c1cccnc1)N1CCOCC1)C(=O)Nc1ccc(F)cc1 (configuration not stated)	inactive: 26.6%
CCCn1ccc2c(OCC(=O)Nc3ccccc3OCC)cccc2c1=O	inactive: -38.3%
Cn1c(SCc2cccc(F)c2)nc2c([nH]c3ccccc32)c1=O	inactive: -2.84%
COc1ccc(Cn2c(=O)[nH]c3cc(C(=O)N4CCN(c5ccccc5)CC4)ccc3c2=O)cc1	inactive: -9.45%
Cc1ccc(CNC(=O)CCC(=O)N2Cc3ccccc3Oc3ncccc32)cc1	inactive: -9.19%
O=C(Nc1ccc2nc(SCC(=O)N3CCCc4ccccc43)sc2c1)c1cccc(Cl)c1	inactive: -31.8%
COc1ccc(CCNC(=O)C2CCN(c3nc4ccccc4nc3C(F)(F)F)CC2)cc1OC	inactive: 13.9%
COCCCNS(=O)(=O)c1ccc(N2CCCCS2(=O)=O)cc1	inactive: -5.54%
COc1ccc(C(=O)Oc2c(Sc3ccccc3)c(C)nn2-c2ccccc2)cc1OC	inactive: -30.8%
Cc1ccc(NC(=O)CN2C(=O)CSc3ccc(S(=O)(=O)N4CCCC4)cc32)c(C)c1	inactive: -18.2%
COc1ccc(-c2noc(Cn3c(=O)c4ccccc4n(CC(=O)Nc4cccc(C(F)(F)F)c4)c3=O)n2)cc1	inactive: -33.4%
Cc1ccc(C)c(NS(=O)(=O)c2ccc3c(c2)n(C)c(=O)n3C)c1	inactive: -8.04%
CN1CCN(C2=Nc3cc(Cl)ccc3Nc3ccccc32)CC1	inactive
O=C(Cc1ccc(F)cc1)NCCc1csc(-c2cccc(F)c2)n1	inactive: -17.5%
CC(C)NC(=O)N1CCC(N2CCN(Cc3ccc(F)cc3)C(=O)C2=O)CC1	inactive: 0.0927%
CCOc1ccc(N(CC)S(=O)(=O)N2CCCC(C(=O)NCc3ccc(Cl)cc3)C2)cc1 (configuration not stated)	inactive: -30.7%
CO[C@@H](C(=O)N1Cc2[nH]nc(NC(=O)c3ccc(N4CCN(C)CC4)cc3)c2C1)c1ccccc1	inactive: -28.5%
CCc1nc2onc(C)c2c(=O)n1CC(=O)O	inactive: 1.95%
O=C(c1cccc(Cl)c1)N(Cc1ccco1)Cc1ccccc1Cl	inactive: -35.8%
Cc1ccccc1-c1nc(CS(=O)(=O)CC(=O)Nc2cccc(C(F)(F)F)c2)c(C)o1	inactive: -28.5%
COc1ccc2c(c1)c1c(c(=O)n(Cc3ccccc3)c(=O)n1CC(=O)Nc1c(C)cccc1C)n2C	inactive: -7.08%

Compound	activity change, positive = activation
Cc1ccc(S(=O)(=O)NCCc2sc3nc(-c4ccccc4)nn3c2C)cc1C	inactive: -0.566%
CCn1c(SCC(=O)N2CCC(C)CC2)nnc1-c1ccccc1O	inactive: -4.69%
Cc1oc(-c2cccc(Br)c2)nc1Cn1c(=O)cc(-c2ccccc2)c2c(C)nn(C)c21	inactive: -9.81%
Cc1ccc(CNC(=O)c2oc3ccc(S(=O)(=O)N4CCC(C)CC4)cc3c2C)cc1	inactive: -26.5%
Cc1cccc(OCC(=O)Nc2ccc3nc(Nc4cccc(C(F)(F)F)c4)cc(C)c3c2)c1	inactive: -43.1%
COc1ccccc1CNC(=O)c1ccc2c(c1)N(Cc1cc(C)ccc1C)C(=O)c1ccccc1S2	inactive: -16.9%
CCCCNC(=O)c1cc2c(=O)n3cccc(C)c3nc2s1	inactive: 27%
COc1ccc(NC(=O)C2=C(C)C(=O)OC23CCN(C(C)C)CC3)cc1Cl	inactive: -18.9%
Cc1ccccc1NC(=O)CSc1nc2ccc(NC(=O)c3ccccc3)cc2s1	inactive: -5.69%
CC(=O)OCc1cnc(C)c2oc(=O)c(C(=O)Nc3ccc(C)cc3Cl)cc12	inactive: -12.7%
CCN(CCO)CCCOc1ccc2c(Nc3cc(CC(=O)Nc4cccc(F)c4)[nH]n3)ncnc2c1	inactive: -10.4%
CC1CCC(Nc2ncnc3onc(-c4ccc(Cl)cc4)c23)CC1 (configuration not stated)	inactive: -31%
COc1ccc(-c2coc3c2c(C)cc2oc(=O)c(C)c(C)c23)cc1	inactive: -3.36%
Cc1ccccc1CN1C(=O)C(O)(CC(=O)c2ccccc2)c2cc(Cl)ccc21 (configuration not stated)	inactive: -31.8%
Cc1oc(-c2ccc(C(=O)NCc3ccc(F)cc3)cc2)nc1CS(=O)c1ccccc1 (configuration not stated)	inactive: -24.7%
CCOc1ccc(/C=C/c2nc(C#N)c(NC3CCCCC3)o2)cc1	inactive: -2.69%
CC(=O)c1cc2c(cc1N/C(=N/S(=O)(=O)c1ccccc1)c1ccc(Cl)cc1)OCO2	inactive: -14.8%
Cc1cc(C)cc(C(=O)Nc2c(C(=O)Nc3ccccc3F)oc3ccccc23)c1	inactive: -9.88%
COc1ccccc1OCCn1c(C(C)Oc2ccccc2)nc2ccccc21 (configuration not stated)	inactive: -36.4%
CCN(CC)CCNC(=O)c1ccc(-c2nc(CS(=O)(=O)c3ccc(C)cc3)c(C)o2)cc1	inactive: -16.1% [at 11.5 µM, percent change from vehicle, -100% = no light]
CC(C)c1ccc(NC(c2nnc(-c3ccccc3)o2)c2ccc(F)cc2Cl)cc1 (configuration not stated)	inactive: -26.4%
COc1ccc(-c2cc(C(F)(F)F)n3nc(C(=O)O)c(Cl)c3n2)cc1OC	inactive: -4.71%
CCOc1ccc(NC(=O)Cn2cc(C(=O)c3ccc(F)cc3)c(=O)c3cc4c(cc32)OCCO4)cc1	inactive: -8.87%

Reference: PubChem BioAssay AID1508624 (National Center for Advancing Translational Sciences (NCATS), 2021)
